# Assay results as given in publication PMC10668032.
# This is one part of the list. At the low end of the ranking the order means little.
# Biological target: SIX1 homeodomain (reference allele) (UniProt Q15475)
# Assay: universal protein binding microarray
# Settings: Universal all-10-mer PBM (8x60K, AMADID 030236), 300 nM GST-tagged protein, Alexa Fluor 488 anti-GST; buffer, salt, pH and temperature not stated; high values mean tight binding; most listed sequences are background and not binding sites; double strand, one strand shown
row,Sequence,binding signal [E-score]
1,AATGCATG,-0.0336
2,AATCTGGG,0.132
3,ATCGAAGA,0.293
4,CTACGGAC,-0.255
5,CCATGTAA,0.0612
6,CCAAAGGG,0.0408
7,GCATGGGC,-0.135
8,CGTCAACC,-0.262
9,TATAGGCA,0.000955
10,GGCAGATA,0.216
11,CCTGGGAC,-0.0923
12,AGATTATG,0.229
13,AACACTGG,0.029
14,AGATATAC,0.38
15,ACTAAGCG,-0.0108
16,ATAAAACG,-0.00883
17,GTTGTGAA,-0.142
18,CCTGTTCA,-0.0491
19,GACCGCAC,-0.201
20,GTAGGTTA,-0.141
21,CATTCTGA,-0.0505
22,GGGTCTAC,0.0459

row,Sequence,binding signal [E-score]
1,AGGTGTGG,0.186
2,GTGCCAAA,-0.165
3,TCTGATCA,0.148
4,ACGTTTGC,-0.193
5,CGCTTAAC,-0.221
6,ACCTTAAA,-0.158
7,ATTCTCAG,-0.106
8,GTCCCATA,-0.126
9,CCGAGTAC,0.0443
10,ACGTAACT,-0.158
11,ACGTGGGG,-0.101
12,CCCACGGG,-0.214
13,CAAAGGCA,-0.235
14,AGTGCGTG,-0.0573
15,TGAGTTAA,-0.151
16,CACCATGG,0.16
17,GAAACAGC,-0.203
18,CTTAAGTA,-0.0644
19,ACCCATCA,-0.0971
20,CACGTCTG,-0.122
21,AATAGTAG,0.0339
22,ACCAGACT,-0.0538

row,Sequence,binding signal [E-score]
1,GGTTTTGA,-0.0912
2,CGGCACTA,-0.0757
3,ATCGATGA,0.135
4,CCAGCCCG,-0.0291
5,CTCCTGTC,-0.0964
6,CGCTGCAG,-0.166
7,CAAGCGTC,-0.0426
8,CTTTGTGC,-0.2
9,TACTGAGA,0.0485
10,AAGCGGAC,0.0304
11,AGTCACGA,-0.153
12,ACGGTATA,0.309
13,CCTGAAAC,-0.0705
14,ATTCGCCG,-0.0021
15,CGTCCTAG,-0.289
16,CTGCCCAA,-0.0899
17,AAAACGAA,-0.171
18,CAGGTCAC,-0.251
19,GATACGAC,0.382
20,GCGACCCA,-0.127
21,CATCGTGC,-0.211
22,ATAAGTAG,0.0134

row,Sequence,binding signal [E-score]
1,GCCGATGA,0.0868
2,GCACGGGC,-0.119
3,AACTAAGA,0.0432
4,CATCGTCA,0.0178
5,ATATAGAA,0.222
6,AGTGGCCG,-0.146
7,AATAATCT,0.186
8,GAACACTA,-0.051
9,CGCTTGGA,0.101
10,ACGCAGTC,-0.122
11,ATGCTAGC,0.00374
12,GTCGCACA,-0.219
13,TGGTTACA,-0.0768
14,CTTTTAAA,-0.216
15,GGTCAACC,-0.0588
16,CGACCTAA,-0.0576
17,CCACGAAC,-0.0076
18,CGTTCCAG,-0.127
19,CCGGCAGA,-0.2
20,CCGATTGA,0.144
21,GCCGGCCC,-0.268
22,ATGTGAAC,-0.0746

row,Sequence,binding signal [E-score]
1,ACTTGCCG,-0.327
2,AAGCCTAA,-0.229
3,ATAGGCCC,0.1
4,ATCCCAGC,0.221
5,GACGCGTC,-0.124
6,ACTCGGTA,0.0753
7,AAGAAGCA,-0.197
8,ATACGAAC,0.0751
9,CCCCCCCC,-0.0883
10,CGTTTTAA,-0.0975
11,AAACAGTC,-0.334
12,AACCAACA,0.0225
13,CTAGGCCC,-0.186
14,GACTCCGC,-0.172
15,ACCACGCG,-0.0453
16,GTGATTTA,-0.0365
17,ATCAACAA,0.222
18,ATGGATAA,0.212
19,GTAAGCGA,0.00135
20,AGTTCAAA,-0.149
21,CGACGGAC,-0.205
